# PubChem BioAssay AID2060491 (Molecular Pharmacology Branch, DTP, NCI, 2025)
# The source holds more than one record for some entries. The list is limited to them. An entry can have further records. Values given together are repeated measurements (runs, samples, wells, individuals or studies). Signs of the kind (2×) give the number of equal values in this list.
# System: 857933-349-R-J2-PDC complex spheroids, viability
# Assay: Anticancer human tumor 857933-349-R-J2-PDC patient-derived colon adenocarcinoma cell line growth inhibition [GQUAD]
# Conditions: compound alone
# From the text: DNA G-quadruplex Stabilizer Agents in Combinations in Complex Spheroids
# A high-throughput screen of multi-cell type tumor spheroids was designed to identify active combinations of DNA G-quadruplex stabilizer agents and targeted small molecules. Complex spheroids include a stromal component modeled by human endothelial cells (HUVEC) and fibroblasts modeled by human mesenchymal stem cells (MSCs). The concentration ranges selected for each drug and investigational agent were based upon clinically achievable concentrations if the clinical Cmax of the agent was known.
# Compounds. The drugs and investigational agents: pidnarulex (CX-5461; NSC782164), APTO-253 (NSC789042), BRACO-19 (NSC847499), peposertib (NSC802822), ceralasertib (NSC780249), elimusertib (NSC800525), camonsertib (NSC841442), AZD-1390 (NSC803789), olaparib (NSC753686), talazoparib (NSC767125), ART-558 (NSC835418), sotorasib (NSC818433), MRTX-1133 (NSC836407), SN-38 (NSC673596), topotecan (NSC609699), etoposide (NSC141540), doxorubicin (NSC123127), gemcitabine (NSC613327), 5-fluorouracil (NSC19893), paclitaxel (NSC125973), vemurafenib (NSC761431), panobinostat (NSC761190), R-306465 (JNJ-16241199; NSC773264), adavosertib (NSC754352), TP-3654 (NSC805149), carboplatin (NSC241240), KSQ-4279 (NSC840948), and staurosporine (NSC755774) were obtained from the National Cancer Institute (NCI) Developmental Therapeutics Program Chemical Repository (34). The FDA-approved anticancer drug set is available from the NCI Developmental Therapeutics Program. […] The stock solutions were prepared in dimethyl sulfoxide (DMSO, Sigma-Aldrich, St. Louis, MO, cat. D2650) at 800-fold the tested concentration and stored at -70 degrees C prior to their use. All drugs and investigational agents were tested over a range starting from a high concentration at or near the clinical Cmax and decreasing in half-log increments. If the clinical Cmax for an agent had not been determined, the highest concentration tested was 10 microM.
# 2.3 Cell Culture. All cells were maintained in an incubator at 37 degrees C and 5% CO2 with 95% humidity. […]
# 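Further: spheroids exposed to compounds for one week before readout.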
row,IC50,Compound
1,"122 nM, 178 nM, > 10 µM",CC1COCCN1c1cc(C2(O)CC3CCC(C2)O3)c2cnn(-c3ccn[nH]3)c2n1 (stereo not drawn)
2,"477 nM, 488 nM, 6.13 µM",COc1cc(C2c3cc4c(cc3C(OC3OC5COC(C)OC5C(O)C3O)C3COC(=O)C23)OCO4)cc(OC)c1O (stereo not drawn)
3,112 nM and > 10 µM (2×),CC1COCCN1c1cc(-c2ccnn2C)c2ccnc(-c3ccn[nH]3)c2n1 (stereo not drawn)
